Here are results for 62 sequences from the supplement of paper PMC10681739.

The full ranking holds about 4,000 sequences; the median of “arbitrary fluorescence units” is about 830, and the highest 2% start at about 6,500. This part holds few or none of the hits.
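Also: Full-length recombinant human RUNX1 bound to double-stranded DNA microarray spots, detected with an Alexa488-labelled secondary antibody after the anti-RUNX1 primary, read as scanned spot fluorescence.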

Chain of UniProt Q01196 (Q01196 whole entry): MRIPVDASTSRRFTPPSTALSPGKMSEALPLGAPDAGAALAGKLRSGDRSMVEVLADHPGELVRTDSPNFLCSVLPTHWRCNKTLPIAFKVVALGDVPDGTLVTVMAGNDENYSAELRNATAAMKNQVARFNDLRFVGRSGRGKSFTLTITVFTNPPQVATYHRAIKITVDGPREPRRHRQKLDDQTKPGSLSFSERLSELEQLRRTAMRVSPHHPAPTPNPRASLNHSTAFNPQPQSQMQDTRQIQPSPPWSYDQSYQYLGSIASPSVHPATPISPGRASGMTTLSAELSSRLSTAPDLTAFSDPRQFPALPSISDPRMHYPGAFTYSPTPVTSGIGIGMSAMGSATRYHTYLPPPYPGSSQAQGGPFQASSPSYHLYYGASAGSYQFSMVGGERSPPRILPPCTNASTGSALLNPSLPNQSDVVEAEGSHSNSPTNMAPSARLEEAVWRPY

This experiment concerns the target RUNX1 (UniProt Q01196). Description: RUNX1 binding intensity (PBM fluorescence), RUNX1 alone (arbitrary fluorescence units); higher = stronger binding. Particulars: RUNX1 concentration 2 nM; ETS1 concentration 0 nM. The procedure:
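gcPBM on 36-bp genomic-derived probes (partner site mutated) containing one RUNX1 site and no ETS1 site. Recombinant human RUNX1 (2 nM) was incubated alone or with ETS1 (25 nM) and detected by anti-RUNX1 antibody fluorescence. Values are medians over 4 replicate spots (not normalised). The probes sit in constant array flanks that are not printed.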
GGAACGGAGGCGCAAGGGGCCCTGCGGCGACGACGT came in with an RUNX1 binding intensity of 575.

Sequence GTACGCTGGGCCGCAGTCCCTGCCGGGAATTGTAGT showed an RUNX1 binding intensity of 672.

As to CCCCTTGCCGTTCTCCGAAAGTGCGCGGGTTGGAGC, the RUNX1 binding intensity was found to be 868.

The sequence GGCACTGGCTTTCAGGGGCCTCTGTGGGCTGGACAG showed an RUNX1 binding intensity of 653.

With AATATGTGGGCTGAGGCGATGGTTGCCTGGGGTGCT, the RUNX1 binding intensity turned out to be 776.

In turn, CCCCGCCTCCTCCGCTTCTGTGGTCTGATCTGCCTG registered an RUNX1 binding intensity of 1340.

On to CCAGCCCAGGCAACAAGGAACCCCAAAGCCACAGGA, for which the RUNX1 binding intensity was 822.

On to GTGTCCTGTGGTCTCCTCTGCGCCACCTCCCTGCCT, for which the RUNX1 binding intensity stood at 1280.

As to GCCGTCAGCTGGATCCGTGCGGTCCGCGAGGACCCG, the RUNX1 binding intensity came to 836.

With TGCTTCATCTGTGGTGAGGGCTGCTTGCTGCTCTGT, the RUNX1 binding intensity was 756.

For CCTGGAGCCTGTGGGCTTGGCTGCTTCAGCTAGCAG, the RUNX1 binding intensity turned out to be 690.

AGCAGGCTATGCCGGGTTTGTGGCTGCTTGGCTCCA had an RUNX1 binding intensity of 697.

For TGACGGCTGCACGGGCGCAGCGGCGGCCCGCAGGGG, the RUNX1 binding intensity was 736.

Take CACCCTGGCCCCACAGCCCCAGTAAAACATTCCTCA: the RUNX1 binding intensity turned out to be 1280.

The sequence GCCCGCCCCGGGAGTGCAAACTGTGTGGTCTGGCAG gave an RUNX1 binding intensity of 703.

For the sequence GAGACATGTGGTTACATATTTAACGGCATCATGCCA, the RUNX1 binding intensity turned out to be 1120.

For AGATGGGCATGCTGTGAGCCTGTGGTTCTCAGCATT, the RUNX1 binding intensity was 727.

Turning to CTGCACTTTCGGTCAGGCGGTCGGGCTGCGGGGCCC, the RUNX1 binding intensity came to 734.

CATCAAGTATCTCCTCACGCAAGCAACCGCATCCAT had an RUNX1 binding intensity of 1230.

The sequence TTCGCGTGGTCACTTTCGCGTCCATTCGGGGCTTCT came in with an RUNX1 binding intensity of 761.

For the sequence CCTTGTGGGAGCTGTAGTTCTGCAGGCGCGGAGGCC, the RUNX1 binding intensity turned out to be 678.

Sequence GTAGCGCTGCGGGTTTTTGCGACACCATGCGCGCCT yielded an RUNX1 binding intensity of 922.

TATTGTGTACCTCCCCTTCATGTTGTGGTTGGCTTT: the RUNX1 binding intensity stood at 919.

Consider AGTTGTGGGCTCACCTGGAGGAGTTGCCTGGAGTGG, for which the RUNX1 binding intensity was determined as 771.

CTCCCGGGCCGCAGCCGCGCGTTGCCGGCGCGCTCC came in with an RUNX1 binding intensity of 826.

CCCCACATACGGGGGCCGGGGCCGGGCTGTGGGCTT had an RUNX1 binding intensity of 755.

The sequence GCCCCCGTAAGCTGTCGCCCCGTGCGGTGTGTGCTG displayed an RUNX1 binding intensity of 844.

AGACCCGGCTATGCGCCGGGGACCCCCAGACCGCGC had an RUNX1 binding intensity of 759.

In the case of CGGTGGCTTACGGCCCATGGCGGTGGTTGGTGACTC, the RUNX1 binding intensity came to 746.

In the case of GAAGTCACACCCTGTCTGTTGCGGCAGGGCACAGAG, the RUNX1 binding intensity was found to be 760.

Turning to CCCAGGGCAACCGCTTGCCTCCCGCGGAGGTGCATC, the RUNX1 binding intensity was found to be 769.

Consider ACTTTGTCAGTGTGGTTTTCACATGCTGTCCTAGCT, for which the RUNX1 binding intensity amounted to 1190.

Take ACTAGCGTCACCGCGCCAAGGTTCGGGTCCGGGTCT: the RUNX1 binding intensity was 706.

CGACTGGAACCACTCTGAGGCGCTGCCGCAGACACC had an RUNX1 binding intensity of 1040.

TAGACGCGGTTTTGGACTGCTATCTCCGTAAAAGTC came in with an RUNX1 binding intensity of 884.

Regarding CAGCAACATGCCCGCAGAGAATTCTTCTGGAGGCGG, the RUNX1 binding intensity was determined as 835.

The sequence CTTTCTTGTGGGCGATGATACGTCCTACATTCCCCC registered an RUNX1 binding intensity of 987.

Turning to CCCGCTGCGGCCTCCACAGAGCAGCAAGCAGCCCTC, the RUNX1 binding intensity came to 886.

CCTTGCTGCATGATGCTCTAACCACAAGCCCAGGAG showed an RUNX1 binding intensity of 6030.

TCGGCTGCACGAAAGGCACGCGGTCTCCCTCTTGGC displayed an RUNX1 binding intensity of 762.

TGAGTCATTGCCTGGGTGGGGGCCACAAGACCAGGT showed an RUNX1 binding intensity of 708.

Regarding AAAGAGGCAATCACATACCCGAAAACCACATGCACA, the RUNX1 binding intensity is 1030.

For CTGCCTGCCCCACAGCATGCAGGGACAGGCAGTGGG, the RUNX1 binding intensity turned out to be 633.

Consider CTCCCGTCCCCGCAGAGTGCAAGGCTGTGAACAAGG, for which the RUNX1 binding intensity came out at 842.

For GGAAAGCGCAAGAAAAAAGCAAGATGGGACCGCAAG, the RUNX1 binding intensity was determined as 766.

GCTTTTTCTTGGTGGTTGGGCAGGGAGCCTCTAGAG: the RUNX1 binding intensity came to 999.

Sequence GTAGAGACAGCAAATTATGTTGGTTTTCTTGCAGAA registered an RUNX1 binding intensity of 702.

GACTCTTCAGGCCCAGAGCTTTCGGAGTGCGGTTGC displayed an RUNX1 binding intensity of 775.

The sequence AAGGCACCAACCACTTCGGAGGAGACGGGGGGTGGT came in with an RUNX1 binding intensity of 857.

For TCGCATATGGCTGTGGGAGGAGGAATGGAGGCCCAG, the RUNX1 binding intensity turned out to be 736.

In turn, GCTCCCCTGACCACACCAGTTCCTCAGGGAGCCTCT had an RUNX1 binding intensity of 1020.

Sequence CGCCTACCCCTTGCTGAGGCGGGGGCGGTTTCTCGA gave an RUNX1 binding intensity of 1740.

Consider GCTGGGGGGCTCCCGCAGAGGCAGGGAACTGGCGGG, for which the RUNX1 binding intensity was found to be 730.

Consider TCATAGCCGGCAGGAATGGGTTTTGTGGCTTTGTGC, for which the RUNX1 binding intensity amounted to 847.

For the sequence AAGAGTCGCGGTTTTCCACCAGCAAGTTGTCCAGTC, the RUNX1 binding intensity was found to be 2850.

With AGCCAGCTGTGGTGAAGGGAGGCAGCCTGAGAACTG, the RUNX1 binding intensity is 785.

CGGTGCACCACAGCTACGGCACAGCATGTGGAGAAC showed an RUNX1 binding intensity of 769.

For GTGCCACTGAGAGCAAGGGGGCAACCACAGTGGGAG, the RUNX1 binding intensity stood at 867.

ACCACCCCCACAGACAAACTCACCTCCTCTCCCTAG registered an RUNX1 binding intensity of 1500.

For the sequence GCCCCTAAACCGAATGCGGCAGCCACCGCGGACCCC, the RUNX1 binding intensity turned out to be 1100.

In turn, TTGTGGTTTGTCAGCCCCAGACAGGCACGAAACGCT gave an RUNX1 binding intensity of 844.

CCAACACAGCAAATAATTTGAAACCACAATCAGAAA showed an RUNX1 binding intensity of 1420.
